Reference: paper PMC12820563, “FoxP3 forms a head-to-head dimer in vivo and stabilizes its multimerization on adjacent microsatellites”
The list shows a part of the results.

molecular target: T1, MBP-FoxP1dN (Mus musculus, UniProt P58462 326-579); test: PD-seq (MBP pull-down with sequencing); 20 mM Tris-HCl pH 7.5, 100 mM NaCl, 1.5 mM MgCl2, 0.4 uM protein, 0.1 uM dsDNA library, 30 min, room temperature, amylose pull-down; high values mean tight binding; conditions: protein: recombinant; tags: His6-MBP; chain copies: 2; dsDNA, one strand shown
T1 sequence: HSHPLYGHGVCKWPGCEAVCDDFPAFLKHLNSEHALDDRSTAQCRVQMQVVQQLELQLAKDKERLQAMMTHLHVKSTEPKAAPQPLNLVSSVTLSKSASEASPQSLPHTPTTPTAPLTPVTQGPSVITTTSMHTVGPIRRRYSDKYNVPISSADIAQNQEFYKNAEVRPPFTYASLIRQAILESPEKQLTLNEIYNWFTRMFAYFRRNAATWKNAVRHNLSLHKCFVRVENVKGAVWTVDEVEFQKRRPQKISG
In short: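 Protein and DNA were mixed at 0.4 µM and 0.1 µM and held for 30 min at room temperature in Tris pH 7.5 buffer with NaCl and MgCl2; the protein was a His6-MBP-tagged, N-terminally truncated mouse FoxP3 or FoxP1 fragment from E. coli, and the DNA a Klenow-filled double-stranded degenerate library. Amylose resin captured the complexes, which were washed three times. Binding is read as reads-per-million enrichment of pull-down versus input after Illumina sequencing, with replicates pooled.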

Sequence | binding signal
GATGATTGTTCTCCCAGCTGATGAATTCTTGCCATCGAGTAAACAAATTTTCCTAATCTTTCTGTTCAAGCGCCATCTAC | 0.955 RPM ratio (pull-down/input)
GATGATTGTTCTCCCAGCTGATGAATTTCATGACTCGAGTAAACAAATTTTCCTAATCTTTCTGTTCAAGCGCCATCTAC | 0.827 RPM ratio (pull-down/input)
GATGATTGTTCTCCCAGCTGATGAATTCATATCGTCGAGTAAACAAATTTTCCTAATCTTTCTGTTCAAGCGCCATCTAC | 0.946 RPM ratio (pull-down/input)
GATGATTGTTCTCCCAGCTGATGAATTCGGCAATTCGAGTAAACAAATTTTCCTAATCTTTCTGTTCAAGCGCCATCTAC | 0.974 RPM ratio (pull-down/input)
GATGATTGTTCTCCCAGCTGATGAATTCGGGTACTCGAGTAAACAAATTTTCCTAATCTTTCTGTTCAAGCGCCATCTAC | 0.838 RPM ratio (pull-down/input)
GATGATTGTTCTCCCAGCTGATGAATTGTAACGGTCGAGTAAACAAATTTTCCTAATCTTTCTGTTCAAGCGCCATCTAC | 0.979 RPM ratio (pull-down/input)
GATGATTGTTCTCCCAGCTGATGAATTTTTCGTATCGAGTAAACAAATTTTCCTAATCTTTCTGTTCAAGCGCCATCTAC | 1 RPM ratio (pull-down/input)
GATGATTGTTCTCCCAGCTGATGAATTCAAGCCTTCGAGTAAACAAATTTTCCTAATCTTTCTGTTCAAGCGCCATCTAC | 0.87 RPM ratio (pull-down/input)
GATGATTGTTCTCCCAGCTGATGAATTTCACAGTTCGAGTAAACAAATTTTCCTAATCTTTCTGTTCAAGCGCCATCTAC | 0.88 RPM ratio (pull-down/input)
GATGATTGTTCTCCCAGCTGATGAATTAGGGTAGTCGAGTAAACAAATTTTCCTAATCTTTCTGTTCAAGCGCCATCTAC | 0.899 RPM ratio (pull-down/input)
GATGATTGTTCTCCCAGCTGATGAATTCTCGGCATCGAGTAAACAAATTTTCCTAATCTTTCTGTTCAAGCGCCATCTAC | 1.02 RPM ratio (pull-down/input)
GATGATTGTTCTCCCAGCTGATGAATTCCACTAATCGAGTAAACAAATTTTCCTAATCTTTCTGTTCAAGCGCCATCTAC | 1.07 RPM ratio (pull-down/input)
GATGATTGTTCTCCCAGCTGATGAATTTCGCACCTCGAGTAAACAAATTTTCCTAATCTTTCTGTTCAAGCGCCATCTAC | 0.792 RPM ratio (pull-down/input)
GATGATTGTTCTCCCAGCTGATGAATTTGCACCCTCGAGTAAACAAATTTTCCTAATCTTTCTGTTCAAGCGCCATCTAC | 0.929 RPM ratio (pull-down/input)
GATGATTGTTCTCCCAGCTGATGAATTTAGATCTTCGAGTAAACAAATTTTCCTAATCTTTCTGTTCAAGCGCCATCTAC | 0.992 RPM ratio (pull-down/input)
GATGATTGTTCTCCCAGCTGATGAATTGTGTTGTTCGAGTAAACAAATTTTCCTAATCTTTCTGTTCAAGCGCCATCTAC | 2.69 RPM ratio (pull-down/input)
GATGATTGTTCTCCCAGCTGATGAATTCTCGGGATCGAGTAAACAAATTTTCCTAATCTTTCTGTTCAAGCGCCATCTAC | 0.724 RPM ratio (pull-down/input)
GATGATTGTTCTCCCAGCTGATGAATTCAAATGTTCGAGTAAACAAATTTTCCTAATCTTTCTGTTCAAGCGCCATCTAC | 0.944 RPM ratio (pull-down/input)
GATGATTGTTCTCCCAGCTGATGAATTAGATACGTCGAGTAAACAAATTTTCCTAATCTTTCTGTTCAAGCGCCATCTAC | 1.06 RPM ratio (pull-down/input)
GATGATTGTTCTCCCAGCTGATGAATTCGGTCGGTCGAGTAAACAAATTTTCCTAATCTTTCTGTTCAAGCGCCATCTAC | 0.76 RPM ratio (pull-down/input)

Sequence | binding signal
GATGATTGTTCTCCCAGCTGATGAATTATGACTCTCGAGTAAACAAATTTTCCTAATCTTTCTGTTCAAGCGCCATCTAC | 0.928 RPM ratio (pull-down/input)
GATGATTGTTCTCCCAGCTGATGAATTTCTGAGATCGAGTAAACAAATTTTCCTAATCTTTCTGTTCAAGCGCCATCTAC | 0.753 RPM ratio (pull-down/input)
GATGATTGTTCTCCCAGCTGATGAATTGTCAAAATCGAGTAAACAAATTTTCCTAATCTTTCTGTTCAAGCGCCATCTAC | 1.12 RPM ratio (pull-down/input)
GATGATTGTTCTCCCAGCTGATGAATTAGGCACTTCGAGTAAACAAATTTTCCTAATCTTTCTGTTCAAGCGCCATCTAC | 0.916 RPM ratio (pull-down/input)
GATGATTGTTCTCCCAGCTGATGAATTGTTTATTTCGAGTAAACAAATTTTCCTAATCTTTCTGTTCAAGCGCCATCTAC | 2.77 RPM ratio (pull-down/input)
GATGATTGTTCTCCCAGCTGATGAATTCCTGCTTTCGAGTAAACAAATTTTCCTAATCTTTCTGTTCAAGCGCCATCTAC | 1.19 RPM ratio (pull-down/input)
GATGATTGTTCTCCCAGCTGATGAATTTGATGTGTCGAGTAAACAAATTTTCCTAATCTTTCTGTTCAAGCGCCATCTAC | 1.16 RPM ratio (pull-down/input)
GATGATTGTTCTCCCAGCTGATGAATTGAGATTTTCGAGTAAACAAATTTTCCTAATCTTTCTGTTCAAGCGCCATCTAC | 0.923 RPM ratio (pull-down/input)
GATGATTGTTCTCCCAGCTGATGAATTGGCCAGCTCGAGTAAACAAATTTTCCTAATCTTTCTGTTCAAGCGCCATCTAC | 0.731 RPM ratio (pull-down/input)
GATGATTGTTCTCCCAGCTGATGAATTGACCGGTTCGAGTAAACAAATTTTCCTAATCTTTCTGTTCAAGCGCCATCTAC | 0.902 RPM ratio (pull-down/input)
GATGATTGTTCTCCCAGCTGATGAATTTGACTTTTCGAGTAAACAAATTTTCCTAATCTTTCTGTTCAAGCGCCATCTAC | 0.876 RPM ratio (pull-down/input)
GATGATTGTTCTCCCAGCTGATGAATTTCTCGCCTCGAGTAAACAAATTTTCCTAATCTTTCTGTTCAAGCGCCATCTAC | 0.885 RPM ratio (pull-down/input)
GATGATTGTTCTCCCAGCTGATGAATTGACAAGCTCGAGTAAACAAATTTTCCTAATCTTTCTGTTCAAGCGCCATCTAC | 1.15 RPM ratio (pull-down/input)
GATGATTGTTCTCCCAGCTGATGAATTCCAGCGTTCGAGTAAACAAATTTTCCTAATCTTTCTGTTCAAGCGCCATCTAC | 0.883 RPM ratio (pull-down/input)
GATGATTGTTCTCCCAGCTGATGAATTGTCATGCTCGAGTAAACAAATTTTCCTAATCTTTCTGTTCAAGCGCCATCTAC | 1.07 RPM ratio (pull-down/input)
GATGATTGTTCTCCCAGCTGATGAATTTGAGTGATCGAGTAAACAAATTTTCCTAATCTTTCTGTTCAAGCGCCATCTAC | 0.906 RPM ratio (pull-down/input)
GATGATTGTTCTCCCAGCTGATGAATTCAGGGATTCGAGTAAACAAATTTTCCTAATCTTTCTGTTCAAGCGCCATCTAC | 0.875 RPM ratio (pull-down/input)
GATGATTGTTCTCCCAGCTGATGAATTTCCACCCTCGAGTAAACAAATTTTCCTAATCTTTCTGTTCAAGCGCCATCTAC | 0.882 RPM ratio (pull-down/input)
GATGATTGTTCTCCCAGCTGATGAATTTCCGAGTTCGAGTAAACAAATTTTCCTAATCTTTCTGTTCAAGCGCCATCTAC | 0.813 RPM ratio (pull-down/input)
GATGATTGTTCTCCCAGCTGATGAATTCGTACAGTCGAGTAAACAAATTTTCCTAATCTTTCTGTTCAAGCGCCATCTAC | 0.897 RPM ratio (pull-down/input)
